# Data from the supplement of paper PMC8728848.
# The other results are listed elsewhere or left out.
# B1: GALT1 615 (Arabidopsis thaliana), Q8L7F9 (protein)
# chain: DPMRGSHHHHHHGMASMTGGQQMGRDLYDDDDKSRLQKPYITAAASVVVTPNTTLPMEWLRITLPDFMKEARNTQEAISGDDIAVVSGLFVEQNVSKEEREPLLTWNRLESLVDNAQSLVNGVDAIKEAGIVWESLVSAVEAKKLVDVNENQTRKGKEELCPQFLSKMNATEADGSSLKLQIPCGLTQGSSITVIGIPDGLVGSFRIDLTGQPLPGEPDPPIIVHYNVRLLGDKSTEDPVIVQNSWTASQDWGAEERCPKFDPDMNKKVDDLDECNKMVGGEINRTSSTSLQSNTSRGVPVAREASKHEKYFPFKQGFLSVATLRVGTEGMQMTVDGKHITSFAFRDTLEPWLVSEIRITGDFRLISILA
# Experiments:
# Experiment in all cases: glycan array binding signal (z-score within array); higher = stronger binding
# Settings in all cases: glycan notation: IUPAC condensed, linker removed
# [1] = target: Gal(a1-2)Gal
# How it was run: (§1)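 Columns mapping to the same glycan were averaged after glycan names were converted to IUPAC-condensed notation. The data come from 3228 arrays in the Consortium for Functional Glycomics database, limited to those with an available protein sequence. Binding is reported as a within-array Z-score averaged across arrays of one protein sequence and across linkers.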
# [2] = target: Gal(a1-3)Gal
# How it was run: as §1
# [3] = target: Gal(a1-3)Gal(b1-3)GlcNAc
# How it was run: as §1
# [4] = target: Gal(a1-3)Gal(b1-4)Glc
# How it was run: as §1
# [5] = target: Gal(a1-3)Gal(b1-4)GlcNAc
# How it was run: as §1
# [6] = target: Gal(a1-3)Gal(b1-4)[Fuc(a1-3)]GlcNAc
# How it was run: as §1
# [7] = target: Gal(a1-3)Gal(b1-4)[Fuc(a1-3)]GlcNAc(b1-2)Man(a1-3)[Gal(a1-3)Gal(b1-4)[Fuc(a1-3)]GlcNAc(b1-2)Man(a1-6)]Man(b1-4)GlcNAc(b1-4)GlcNAc
# How it was run: as §1
# [8] = target: Gal(a1-3)GalNAc
# How it was run: as §1
# [9] = target: Gal(a1-3)[Gal(a1-4)]Gal(b1-4)GlcNAc
# How it was run: as §1
# [10] = target: Gal(a1-4)Gal(b1-4)Glc
# How it was run: as §1
# [11] = target: Gal(a1-4)Gal(b1-4)GlcNAc
# How it was run: as §1
# [12] = target: Gal(a1-4)Gal(b1-4)GlcNAc(b1-3)Gal(b1-4)Glc
# How it was run: as §1
# [13] = target: Gal(a1-4)GlcNAc
# How it was run: as §1
# [14] = target: Gal(a1-6)Glc
# How it was run: as §1
# [15] = target: Gal(b1-2)Gal
# How it was run: as §1
# [16] = target: Gal(b1-3)Gal
# How it was run: as §1
# [17] = target: Gal(b1-3)Gal(b1-4)GlcNAc
# How it was run: as §1
# [18] = target: Gal(b1-3)Gal(b1-4)GlcNAc(b1-2)Man(a1-3)[Gal(b1-3)Gal(b1-4)GlcNAc(b1-2)Man(a1-6)]Man(b1-4)GlcNAc(b1-4)GlcNAc
# How it was run: as §1
# [19] = target: Gal(b1-3)GalNAc
# How it was run: as §1
# [20] = target: Gal(b1-3)GalNAc(a1-3)[Fuc(a1-2)]Gal(b1-4)Glc
# How it was run: as §1
# [21] = target: Gal(b1-3)GalNAc(a1-3)[Fuc(a1-2)]Gal(b1-4)GlcNAc
# How it was run: as §1
# [22] = target: Gal(b1-3)GalNAc(b1-3)Gal(a1-4)Gal(b1-4)Glc
# How it was run: as §1
# [23] = target: Gal(b1-3)GalNAc(b1-4)Gal(b1-4)Glc
# How it was run: as §1
# [24] = target: Gal(b1-3)GalNAc(b1-4)[Neu5Ac(a2-3)]Gal(b1-4)Glc
# How it was run: as §1
# [25] = target: Gal(b1-3)GlcNAc
# How it was run: as §1
# [26] = target: Gal(b1-3)GlcNAc(b1-2)Man(a1-3)[Gal(b1-3)GlcNAc(b1-2)Man(a1-6)]Man(b1-4)GlcNAc(b1-4)GlcNAc
# How it was run: as §1
# [27] = target: Gal(b1-3)GlcNAc(b1-2)Man(a1-3)[Gal(b1-3)GlcNAc(b1-2)Man(a1-6)]Man(b1-4)GlcNAc(b1-4)[Fuc(a1-6)]GlcNAc
# How it was run: as §1
# [28] = target: Gal(b1-3)GlcNAc(b1-3)Gal(b1-3)GlcNAc
# How it was run: as §1
# [29] = target: Gal(b1-3)GlcNAc(b1-3)Gal(b1-4)Glc
# How it was run: as §1
# [30] = target: Gal(b1-3)GlcNAc(b1-3)Gal(b1-4)GlcNAc
# How it was run: as §1
# [31] = target: Gal(b1-3)[Fuc(a1-4)]GlcNAc
# How it was run: as §1
# [32] = target: Gal(b1-3)[Fuc(a1-4)]GlcNAc(b1-2)Man(a1-3)[Gal(b1-3)[Fuc(a1-4)]GlcNAc(b1-2)Man(a1-6)]Man(b1-4)GlcNAc(b1-4)GlcNAc
# How it was run: as §1
# [33] = target: Gal(b1-3)[Fuc(a1-4)]GlcNAc(b1-2)Man(a1-3)[Gal(b1-3)[Fuc(a1-4)]GlcNAc(b1-2)Man(a1-6)]Man(b1-4)GlcNAc(b1-4)[Fuc(a1-6)]GlcNAc
# How it was run: as §1
# [34] = target: Gal(b1-3)[Fuc(a1-4)]GlcNAc(b1-3)Gal(b1-3)[Fuc(a1-4)]GlcNAc
# How it was run: as §1
# [35] = target: Gal(b1-3)[Fuc(a1-4)]GlcNAc(b1-3)Gal(b1-4)GlcNAc
# How it was run: as §1
# [36] = target: Gal(b1-3)[Fuc(a1-4)]GlcNAc(b1-3)Gal(b1-4)[Fuc(a1-3)]GlcNAc
# How it was run: as §1
# [37] = target: Gal(b1-3)[GlcNAc(b1-6)]GalNAc
# How it was run: as §1
# [38] = target: Gal(b1-3)[Neu5Ac(a2-6)]GalNAc
# How it was run: as §1
# [39] = target: Gal(b1-3)[Neu5Ac(a2-6)]GlcNAc(b1-6)Gal(b1-4)Glc
# How it was run: as §1
# [40] = target: Gal(b1-3)[Neu5Ac(b2-6)]GalNAc
# How it was run: as §1
# [41] = target: Gal(b1-4)GalNAc(a1-3)[Fuc(a1-2)]Gal(b1-4)GlcNAc
# How it was run: as §1
# [42] = target: Gal(b1-4)GalNAc(b1-3)[Fuc(a1-2)]Gal(b1-4)GlcNAc
# How it was run: as §1
# [43] = target: Gal(b1-4)Glc
# How it was run: as §1
# [44] = target: Gal(b1-4)Glc6S
# How it was run: as §1
# [45] = target: Gal(b1-4)GlcNAc
# How it was run: as §1
# [46] = target: Gal(b1-4)GlcNAc(a1-6)Gal(b1-4)GlcNAc
# How it was run: as §1
# [47] = target: Gal(b1-4)GlcNAc(b1-2)Man(a1-3)Man(b1-4)GlcNAc(b1-4)GlcNAc
# How it was run: as §1
# [48] = target: Gal(b1-4)GlcNAc(b1-2)Man(a1-3)[Gal(b1-4)GlcNAc(b1-2)Man(a1-6)]Man(b1-4)GlcNAc(b1-4)GlcNAc
# How it was run: as §1
# [49] = target: Gal(b1-4)GlcNAc(b1-2)Man(a1-3)[Gal(b1-4)GlcNAc(b1-2)Man(a1-6)]Man(b1-4)GlcNAc(b1-4)[Fuc(a1-6)]GlcNAc
# How it was run: as §1
# [50] = target: Gal(b1-4)GlcNAc(b1-2)Man(a1-3)[Man(a1-6)]Man(b1-4)GlcNAc(b1-4)GlcNAc
# How it was run: as §1
# [51] = target: Gal(b1-4)GlcNAc(b1-2)Man(a1-6)Man(b1-4)GlcNAc(b1-4)GlcNAc
# How it was run: as §1
# [52] = target: Gal(b1-4)GlcNAc(b1-2)Man(a1-6)[Man(a1-3)]Man(b1-4)GlcNAc(b1-4)GlcNAc
# How it was run: as §1
# [53] = target: Gal(b1-4)GlcNAc(b1-2)[Gal(b1-4)GlcNAc(b1-4)]Man(a1-3)[Gal(b1-4)GlcNAc(b1-2)Man(a1-6)]Man(b1-4)GlcNAc(b1-4)GlcNAc
# How it was run: as §1
# [54] = target: Gal(b1-4)GlcNAc(b1-3)Gal(b1-3)GlcNAc
# How it was run: as §1
# [55] = target: Gal(b1-4)GlcNAc(b1-3)Gal(b1-4)Glc
# How it was run: as §1
# [56] = target: Gal(b1-4)GlcNAc(b1-3)Gal(b1-4)GlcNAc
# How it was run: as §1
# [57] = target: Gal(b1-4)GlcNAc(b1-3)Gal(b1-4)GlcNAc(b1-3)Gal(b1-4)GlcNAc
# How it was run: as §1
# [58] = target: Gal(b1-4)GlcNAc(b1-3)Gal(b1-4)[Fuc(a1-3)]GlcNAc(b1-3)Gal(b1-4)[Fuc(a1-3)]GlcNAc
# How it was run: as §1
# [59] = target: Gal(b1-4)GlcNAc(b1-3)GalNAc
# How it was run: as §1
# [60] = target: Gal(b1-4)GlcNAc(b1-3)[Gal(b1-4)GlcNAc(b1-6)]Gal(b1-4)GlcNAc
# How it was run: as §1
binder,measurement,setting,value
B1,glycan array binding signal (z-score),[1],-0.462
same,glycan array binding signal (z-score),[2],-0.105
same,glycan array binding signal (z-score),[3],-0.514
same,glycan array binding signal (z-score),[4],0.489
same,glycan array binding signal (z-score),[5],-0.212
same,glycan array binding signal (z-score),[6],-0.144
same,glycan array binding signal (z-score),[7],-0.396
same,glycan array binding signal (z-score),[8],-0.236
same,glycan array binding signal (z-score),[9],-0.363
same,glycan array binding signal (z-score),[10],-0.255
same,glycan array binding signal (z-score),[11],-0.304
same,glycan array binding signal (z-score),[12],-0.349
same,glycan array binding signal (z-score),[13],0.152
same,glycan array binding signal (z-score),[14],-0.628
same,glycan array binding signal (z-score),[15],-0.259
same,glycan array binding signal (z-score),[16],-0.364
same,glycan array binding signal (z-score),[17],-0.135
same,glycan array binding signal (z-score),[18],0.099
same,glycan array binding signal (z-score),[19],-0.036
same,glycan array binding signal (z-score),[20],-0.221
same,glycan array binding signal (z-score),[21],0.064
same,glycan array binding signal (z-score),[22],-0.274
same,glycan array binding signal (z-score),[23],-0.508
same,glycan array binding signal (z-score),[24],0.13
same,glycan array binding signal (z-score),[25],-0.556
same,glycan array binding signal (z-score),[26],0.106
same,glycan array binding signal (z-score),[27],-0.217
same,glycan array binding signal (z-score),[28],-0.271
same,glycan array binding signal (z-score),[29],-0.508
same,glycan array binding signal (z-score),[30],-0.134
same,glycan array binding signal (z-score),[31],-0.131
same,glycan array binding signal (z-score),[32],-0.574
same,glycan array binding signal (z-score),[33],-0.275
same,glycan array binding signal (z-score),[34],-0.313
same,glycan array binding signal (z-score),[35],-0.317
same,glycan array binding signal (z-score),[36],-0.458
same,glycan array binding signal (z-score),[37],-0.125
same,glycan array binding signal (z-score),[38],-0.014
same,glycan array binding signal (z-score),[39],-0.191
same,glycan array binding signal (z-score),[40],-0.121
same,glycan array binding signal (z-score),[41],-0.412
same,glycan array binding signal (z-score),[42],-0.388
same,glycan array binding signal (z-score),[43],-0.129
same,glycan array binding signal (z-score),[44],-0.35
same,glycan array binding signal (z-score),[45],-0.246
same,glycan array binding signal (z-score),[46],-0.055
same,glycan array binding signal (z-score),[47],-0.484
same,glycan array binding signal (z-score),[48],0.081
same,glycan array binding signal (z-score),[49],-0.015
same,glycan array binding signal (z-score),[50],-0.375
same,glycan array binding signal (z-score),[51],-0.386
same,glycan array binding signal (z-score),[52],-0.464
same,glycan array binding signal (z-score),[53],-0.413
same,glycan array binding signal (z-score),[54],-0.249
same,glycan array binding signal (z-score),[55],0.104
same,glycan array binding signal (z-score),[56],-0.417
same,glycan array binding signal (z-score),[57],-0.305
same,glycan array binding signal (z-score),[58],-0.574
same,glycan array binding signal (z-score),[59],-0.376
same,glycan array binding signal (z-score),[60],-0.329
